One assay deals with PhoR (Bacillus subtilis) (UniProt P23545). Nature of the assay: two-hybrid; bacterial two-hybrid of PhoR with PhoR and ResE with ResE (pKNT25 and pUT18) in E. coli BTH101, without and with low, medium or high levels of His6-FloA or His6-FloT from pSEVA-621, -631, -641; Miller units.
The target in assay [1] is T1, FloT (Bacillus subtilis) (UniProt O32076).
T1 sequence: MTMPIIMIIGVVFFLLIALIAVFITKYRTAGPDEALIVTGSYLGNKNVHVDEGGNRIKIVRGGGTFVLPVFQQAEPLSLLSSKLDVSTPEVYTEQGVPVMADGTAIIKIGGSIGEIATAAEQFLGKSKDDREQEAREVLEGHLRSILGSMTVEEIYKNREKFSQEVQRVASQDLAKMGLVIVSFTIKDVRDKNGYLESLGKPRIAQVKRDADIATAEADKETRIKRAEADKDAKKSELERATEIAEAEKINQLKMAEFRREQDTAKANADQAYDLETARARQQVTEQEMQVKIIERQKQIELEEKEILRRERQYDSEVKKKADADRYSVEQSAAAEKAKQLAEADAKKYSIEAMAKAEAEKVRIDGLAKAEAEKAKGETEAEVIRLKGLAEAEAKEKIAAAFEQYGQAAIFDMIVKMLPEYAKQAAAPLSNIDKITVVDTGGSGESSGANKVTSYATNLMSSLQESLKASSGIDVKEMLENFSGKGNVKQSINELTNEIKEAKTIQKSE
Nature of the assay: two-hybrid; bacterial two-hybrid (adenylate cyclase T25/T18 fusions from pKNT25 and pUT18) in E. coli BTH101; lacZ reporter, X-Gal plates 48 h at 30°C and Miller units; positive signal defined as ≥ 700 Miller Units.

Amino acid sequences for entries named in this document (tags omitted).
UniProt P23545: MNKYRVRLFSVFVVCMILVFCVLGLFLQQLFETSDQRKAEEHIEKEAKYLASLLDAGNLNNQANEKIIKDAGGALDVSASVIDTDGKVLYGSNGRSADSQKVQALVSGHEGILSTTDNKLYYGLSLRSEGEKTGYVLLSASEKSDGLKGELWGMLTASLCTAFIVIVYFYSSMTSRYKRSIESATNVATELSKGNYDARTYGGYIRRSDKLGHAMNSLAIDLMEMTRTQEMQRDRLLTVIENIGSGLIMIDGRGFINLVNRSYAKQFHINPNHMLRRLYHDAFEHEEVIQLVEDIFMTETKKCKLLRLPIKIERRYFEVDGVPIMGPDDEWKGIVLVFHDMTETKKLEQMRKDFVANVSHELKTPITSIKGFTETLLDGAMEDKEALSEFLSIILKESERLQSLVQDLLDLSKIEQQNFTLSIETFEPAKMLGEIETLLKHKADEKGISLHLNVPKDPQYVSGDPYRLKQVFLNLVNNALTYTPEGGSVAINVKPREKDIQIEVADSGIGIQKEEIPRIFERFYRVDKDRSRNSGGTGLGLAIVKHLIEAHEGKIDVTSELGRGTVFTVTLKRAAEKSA

Assay [2] concerns the target T2, FloA (Bacillus subtilis) (UniProt P54466).
T2 sequence: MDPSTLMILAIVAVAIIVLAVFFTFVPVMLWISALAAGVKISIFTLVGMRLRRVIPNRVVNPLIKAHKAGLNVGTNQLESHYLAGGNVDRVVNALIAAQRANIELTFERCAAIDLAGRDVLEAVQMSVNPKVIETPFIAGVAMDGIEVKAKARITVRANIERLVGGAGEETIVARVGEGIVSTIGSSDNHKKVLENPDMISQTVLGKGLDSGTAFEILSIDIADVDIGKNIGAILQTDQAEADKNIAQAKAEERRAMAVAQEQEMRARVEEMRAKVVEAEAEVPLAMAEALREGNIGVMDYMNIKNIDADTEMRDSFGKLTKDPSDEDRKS
Described as above.

Assay [3] deals with T1, FloT (Bacillus subtilis). Described as above. The source holds these as a separate data set.
Assay [4] has as its target T2, FloA (Bacillus subtilis). The assay is described as above. The source holds these as a separate data set.
Another assay deals with ResE (Bacillus subtilis) (UniProt P35164). Nature of the assay: two-hybrid; bacterial two-hybrid of PhoR with PhoR and ResE with ResE (pKNT25 and pUT18) in E. coli BTH101, without and with low, medium or high levels of His6-FloA or His6-FloT from pSEVA-621, -631, -641; Miller units.

Like-named read-outs stand apart in the source and are kept apart here. No constants are given. Whether binding was seen depends on the method and setting. Some binding calls cover weakened binding; strength is not graded here.

With PhoR (from UniProt P23545 1-579), the binding result was “binds” with PhoR (Bacillus subtilis), “no binding” with FloT (Bacillus subtilis) [1] and “binds” with FloA (Bacillus subtilis) [2].

B1: FloA (protein, UniProt P54466 1-331)
chain: MDPSTLMILAIVAVAIIVLAVFFTFVPVMLWISALAAGVKISIFTLVGMRLRRVIPNRVVNPLIKAHKAGLNVGTNQLESHYLAGGNVDRVVNALIAAQRANIELTFERCAAIDLAGRDVLEAVQMSVNPKVIETPFIAGVAMDGIEVKAKARITVRANIERLVGGAGEETIVARVGEGIVSTIGSSDNHKKVLENPDMISQTVLGKGLDSGTAFEILSIDIADVDIGKNIGAILQTDQAEADKNIAQAKAEERRAMAVAQEQEMRARVEEMRAKVVEAEAEVPLAMAEALREGNIGVMDYMNIKNIDADTEMRDSFGKLTKDPSDEDRKS
As to B1, the binding entry with FloT (Bacillus subtilis) [3] and in the assay with FloA (Bacillus subtilis) [4] was “binds” each time.

B2: FloT (protein, UniProt O32076 1-509)
chain: MTMPIIMIIGVVFFLLIALIAVFITKYRTAGPDEALIVTGSYLGNKNVHVDEGGNRIKIVRGGGTFVLPVFQQAEPLSLLSSKLDVSTPEVYTEQGVPVMADGTAIIKIGGSIGEIATAAEQFLGKSKDDREQEAREVLEGHLRSILGSMTVEEIYKNREKFSQEVQRVASQDLAKMGLVIVSFTIKDVRDKNGYLESLGKPRIAQVKRDADIATAEADKETRIKRAEADKDAKKSELERATEIAEAEKINQLKMAEFRREQDTAKANADQAYDLETARARQQVTEQEMQVKIIERQKQIELEEKEILRRERQYDSEVKKKADADRYSVEQSAAAEKAKQLAEADAKKYSIEAMAKAEAEKVRIDGLAKAEAEKAKGETEAEVIRLKGLAEAEAKEKIAAAFEQYGQAAIFDMIVKMLPEYAKQAAAPLSNIDKITVVDTGGSGESSGANKVTSYATNLMSSLQESLKASSGIDVKEMLENFSGKGNVKQSINELTNEIKEAKTIQKSE
As to B2, in the assay with FloT (Bacillus subtilis) [3], the binding result was “binds”.

B3: ResE (protein, UniProt P35164 1-589)
chain: MKFWKSVVGKLWFTILSLVLIVLFILTVLLLEFIENYHVEEAENDLTQLANKVAVILENHEDQALARSITWELADNLTSIAIIQDEKNHWYSPNDKNRLSSITVEQIQHDKDLNKALKDHKKVSKRTGLSDTDTDNERLIVGVPYEKDGKKGMVFLSQSLLAVKDTTKHTTRYIFLAAGIAIVLTTFFAFFLSSRVTYPLRKMREGAQDLAKGKFDTKIPILTQDEIGELATAFNQMGRQLNFHINALNQEKEQLSNILSSMADGVITINIDGTILVTNPPAERFLQAWYYEQNMNIKEGDNLPPEAKELFQNAVSTEKEQMIEMTLQGRSWVLLMSPLYAESHVRGAVAVLRDMTEERRLDKLREDFIANVSHELRTPISMLQGYSEAIVDDIASSEEDRKEIAQIIYDESLRMGRLVNDLLDLARMESGHTGLHYEKINVNEFLEKIIRKFSGVAKEKNIALDHDISLTEEEFMFDEDKMEQVFTNLIDNALRHTSAGGSVSISVHSVKDGLKIDIKDSGSGIPEEDLPFIFERFYKADKARTRGRAGTGLGLAIVKNIVEAHNGSITVHSRIDKGTTFSFYIPTKR
Take B3: the binding result in the assay with FloT (Bacillus subtilis) [3] is “binds”; with FloA (Bacillus subtilis) [4], “no binding”; in the assay with ResE (Bacillus subtilis), “binds”.

For the origin of these results see publication PMC4409396.
